Assay results from the supplement of paper PMC8728848.
This is one part of the list.

Experiments:
Assay in all cases: glycan array binding signal (z-score within array); higher = stronger binding
Settings in all cases: glycan notation: IUPAC condensed, linker removed
[1] = target: Fuc(a1-2)[Gal(a1-3)]Gal(b1-4)GlcNAc(b1-2)Man(a1-3)[Fuc(a1-2)[Gal(a1-3)]Gal(b1-4)GlcNAc(b1-2)Man(a1-6)]Man(b1-4)GlcNAc(b1-4)GlcNAc
How it was run: (§1)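 The binding signal is a Z-score computed within each array. Data were drawn from 3228 arrays in the Consortium for Functional Glycomics database, restricted to those with a known protein sequence. Scores were averaged over arrays of the same protein sequence at different concentrations or buffers, and over linkers, and negative values can be taken as non-binding.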

[2] = target: Fuc(a1-2)[Gal(a1-3)]Gal(b1-4)GlcNAc(b1-2)Man(a1-3)[Fuc(a1-2)[Gal(a1-3)]Gal(b1-4)GlcNAc(b1-2)Man(a1-6)]Man(b1-4)GlcNAc(b1-4)[Fuc(a1-6)]GlcNAc
How it was run: as §1

[3] = target: Fuc(a1-2)[Gal(a1-3)]Gal(b1-4)GlcNAc(b1-3)GalNAc
How it was run: as §1

[4] = target: Fuc(a1-2)[Gal(a1-3)]Gal(b1-4)GlcNAc(b1-3)[Fuc(a1-2)[Gal(a1-3)]Gal(b1-4)GlcNAc(b1-6)]GalNAc
How it was run: as §1

[5] = target: Fuc(a1-2)[Gal(a1-3)]Gal(b1-4)GlcNAc(b1-6)GalNAc
How it was run: as §1

[6] = target: Fuc(a1-2)[Gal(a1-3)]Gal(b1-4)[Fuc(a1-3)]Glc
How it was run: as §1

[7] = target: Fuc(a1-2)[Gal(a1-3)]Gal(b1-4)[Fuc(a1-3)]GlcNAc
How it was run: as §1

[8] = target: Fuc(a1-2)[Gal(a1-3)]Gal(b1-4)[Fuc(a1-3)]GlcNAc(b1-3)GalNAc
How it was run: as §1

[9] = target: Fuc(a1-2)[Gal(a1-4)]Gal(b1-4)GlcNAc
How it was run: as §1

[10] = target: Fuc(a1-2)[GalNAc(a1-3)]Gal
How it was run: as §1

[11] = target: Fuc(a1-2)[GalNAc(a1-3)]Gal(b1-3)GalNAc(a1-3)[Fuc(a1-2)]Gal(b1-4)GlcNAc
How it was run: as §1

[12] = target: Fuc(a1-2)[GalNAc(a1-3)]Gal(b1-3)GalNAc(b1-3)Gal(a1-4)Gal(b1-4)Glc
How it was run: as §1

[13] = target: Fuc(a1-2)[GalNAc(a1-3)]Gal(b1-3)GlcNAc
How it was run: as §1

[14] = target: Fuc(a1-2)[GalNAc(a1-3)]Gal(b1-3)GlcNAc(b1-2)Man(a1-3)[Fuc(a1-2)[GalNAc(a1-3)]Gal(b1-3)GlcNAc(b1-2)Man(a1-6)]Man(b1-4)GlcNAc(b1-4)GlcNAc
How it was run: as §1

[15] = target: Fuc(a1-2)[GalNAc(a1-3)]Gal(b1-3)GlcNAc(b1-2)Man(a1-3)[Fuc(a1-2)[GalNAc(a1-3)]Gal(b1-3)GlcNAc(b1-2)Man(a1-6)]Man(b1-4)GlcNAc(b1-4)[Fuc(a1-6)]GlcNAc
How it was run: as §1

[16] = target: Fuc(a1-2)[GalNAc(a1-3)]Gal(b1-3)GlcNAc(b1-3)GalNAc
How it was run: as §1

[17] = target: Fuc(a1-2)[GalNAc(a1-3)]Gal(b1-3)GlcNAc(b1-6)GalNAc
How it was run: as §1

[18] = target: Fuc(a1-2)[GalNAc(a1-3)]Gal(b1-4)Glc
How it was run: as §1

[19] = target: Fuc(a1-2)[GalNAc(a1-3)]Gal(b1-4)GlcNAc
How it was run: as §1

[20] = target: Fuc(a1-2)[GalNAc(a1-3)]Gal(b1-4)GlcNAc(b1-2)Man
How it was run: as §1

[21] = target: Fuc(a1-2)[GalNAc(a1-3)]Gal(b1-4)GlcNAc(b1-2)Man(a1-3)[Fuc(a1-2)[GalNAc(a1-3)]Gal(b1-4)GlcNAc(b1-2)Man(a1-6)]Man(b1-4)GlcNAc(b1-4)GlcNAc
How it was run: as §1

[22] = target: Fuc(a1-2)[GalNAc(a1-3)]Gal(b1-4)GlcNAc(b1-2)Man(a1-3)[Fuc(a1-2)[GalNAc(a1-3)]Gal(b1-4)GlcNAc(b1-2)Man(a1-6)]Man(b1-4)GlcNAc(b1-4)[Fuc(a1-6)]GlcNAc
How it was run: as §1

B1: InvD YPIII (Yersinia pseudotuberculosis), B1JSC0 (protein)
chain: MIKYFSFFKKPEPIVGILPNRQSHHILPTHIRRVAWGTLLLQLFIPLSVSFSPAIAAMKASKADTMVSYSSTEPYVLGSGETVAMVAKKYGITVDELKKINIYRTFSRPFTALTTGDEIDIPRKASPFSVDNNKDNRLSVENTLAGHAVAGATALSNGDVAKSGERMVRSAASNEFNNSAQQWLSQFGTARVQLNINDDFHLDGSAADVLIPLYDNEKSILFTQLGARNKDSRNTVNMGAGVRTFQGNWMYGANTFFDNDLTGKNRRIGVGAEAWTDYLKLSANNYFGITDWHQSRDFIDYNERPANGYDLRAEAYLPSYPQLGGKAMYEKYRGDDVALFGKDNRQKNPHAITAGVNYTPIPLVTIGAEHRAGKGGQNDSNINFQLNYRLGETWQSHIDPSAVAASRTLAGSRYDLVERNNHIVLDYQKQNLVRLSLPDSLAGDPFSQLSVTAQVTATHGLERIDWQSAELMAAGGVLKQTSKNGLEITLPEYQMNRTGGNSYILNAIAYDTQGNASSQASMLITVNAQKINIANSTLVAVPINIEANNSDTSVVTLTLKDDNNIPVTGQDVTFLSPLGTLSAMTDSGNGVYTATLTAGTVSGTTAVSSNINGSALDMTPATVTLNGNSGELSITHSMLVAAPVNIEANGSDTSVVTLTLRDSNNNPVTGQTVTFAGTLGTLGAVTEGSSGVYTATLTAGIMVGTSSITASVNSTALGVTPATVTLNGDSGNLSTTNSTLVAAPVNIEANSSDTSVVTLTLRDNNNNPVTGQTVVFTSTLGTLGNVTEQASGVYTATLTAGTVSGVASLSVSVGGNALGVTPATVTLNGDSGNLSTTNSTLVAAPVNIEANSSDTSVVTLTLRDNNNNPVTGQTVNFAGTLGTLGTVSEGSSGVYTTTLTAGTVAGVASLSVNVGGNALGVTPATVTLNGNSGNLSATNSTLVAAPVNIEANSSDTSVVTLTLRDNNNNPVTGQTVAFTSTLGTLGNVTEQASGVYTATLTAGTVSGVASLSVSVNSNALGVTPATVTLNGDSGNLSTTNSTLVAAPVNIEANSSDTSVVTLTLRDNNNNPVTGQTVAFTSTLGTLGNVTEQASGLYTATLTAGTVSGVASLSVNVGGNALGVTPATVTLNGDSGNLSATNSTLVAAPVNIEANSSDTSVVTLTLRDNNNNPVTGQTVAFTSTLGTLGNVTEQASGLYTATLTAGTVSGVASLSVNVGGTALGVTPATVTLNGDSGNLSTTNSTLVAAPVNIEANSSDTSVVTLTLRDNNNNPVTGQTVAFTSTLGTLGNVTEQASGLYTATLTAGTVSGVASLSVSVNSTALGVTPATVTLNGDSGNLSTTNSTLVAAPVNIEANSSDTSVVTLTLRDNNNNPVTGQTVAFTSTLGTLGNVTEQASGVYTATLTAGTVAGVASLSVNVGGNALGVTPATVTLNGDSGNLSTTNSTLVAAPVNIEANSSDTSVVTLTLRDNNNNPVTGQTVAFTSTLGTLGNVTEQASGVYTATLTAGTVSGVASLSVSVGSSALGVTPATVTLNGDSGNLSTTNSTLVAAPVNIEANNSDTSVVTLTLRDNNNNPVTGQTVAFTSTLGTLGNVTEQASGVYTATLTAGTVSGVASLSVSVNSNALGVTPATVTLNGDSGNLSTTNSTLVAAPVNIEANSSDTSVVTLTLRDNNNNPVTGQTVVFTSTLGTLGNVTEQASGLYTATLTAGTVSGVASLSVSVGGNALGVTGNITLAPGALDAARSILAVNKPSINADDRIGSTITFTAQDAQGNAITGLDIAFMTDLENSQIMTLVDHNDGTYTANINGTQTGIANIAVQSSGATIAGLAATMVTITPGAWNTTQATPVMTVALPITTCQSSSGVYKRYYIGIVTHELYDNYGNEISGILTYNLGAGRYTTVTSQNSSVSGSNGLTRRSNSPVSHFILTSDAYTSQAACYAERIANVNVTITVTAITDDFKTSAVNKVFILGTGSN
[1]
  glycan array binding signal (z-score): 0.059
[2]
  glycan array binding signal (z-score): 0.023
[3]
  glycan array binding signal (z-score): -0.321
[4]
  glycan array binding signal (z-score): 0.296
[5]
  glycan array binding signal (z-score): -0.233
[6]
  glycan array binding signal (z-score): -0.075
[7]
  glycan array binding signal (z-score): -0.005
[8]
  glycan array binding signal (z-score): -0.204
[9]
  glycan array binding signal (z-score): -0.217
[10]
  glycan array binding signal (z-score): -0.043
[11]
  glycan array binding signal (z-score): -0.299
[12]
  glycan array binding signal (z-score): 0.163
[13]
  glycan array binding signal (z-score): -0.31
[14]
  glycan array binding signal (z-score): 0.046
[15]
  glycan array binding signal (z-score): 0.36
[16]
  glycan array binding signal (z-score): -0.105
[17]
  glycan array binding signal (z-score): -0.25
[18]
  glycan array binding signal (z-score): -0.366
[19]
  glycan array binding signal (z-score): -0.159
[20]
  glycan array binding signal (z-score): -0.271
[21]
  glycan array binding signal (z-score): -0.273
[22]
  glycan array binding signal (z-score): 0.113
